Laboratory results taken from article PMC12040169 (PLOS Biology, 2025).
The list shows a part of the results.

The molecules below were run on T1, C. trachomatis L2/434/Bu expressing GFP (CTL2-GFP). Settings: total inclusion area; 28.5 h, 10 µM; inhibitor.
T1 construct: L2/434/Bu GFP intracellular growth in HeLa cells
Set-up: species or system HeLa; C. trachomatis total inclusion area by high-content imaging, normalised to DMSO
Procedure, shortened: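 High-content imaging followed the bulk GFP/resorufin measurement: fixed, Hoechst-stained cells were scored for GFP inclusions and host nuclei per well. Total inclusion area and count served as growth proxies, nuclei number as the viability proxy. MIC calculation matched the bulk assay.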

Row | Compound | % of control remaining
1 | Cc1cnn(C2CCCN(C(=O)CC3OCCc4sccc43)C2)c1 (centres unmarked) [CBK305329] | 102.965
2 | Cc1ccc(CN(CCCn2ccnc2)Cc2ccccc2O)s1 [CBK283135] | 91.6275
3 | CN1CCN(c2ccc(NS(=O)(=O)c3ccc(Cl)cc3)cc2)CC1 [CBK076932] | 102.521
4 | c1csc(-c2cn3ccnc3c(NC3CC3)n2)c1 [CBK066712] | 112.478
5 | Cc1cc(NC(=O)C2CCCCC2)nc2c1c(=O)oc1ccccc12 [CBK291247] | 116.46
6 | O=C(NC(CN1CCOCC1)c1ccccc1)c1cnc(-c2ccc(Cl)cc2)c(-c2ccncc2)c1 (centres unmarked) [CBK037604] | 142.555
7 | CN(C)C(=O)[C@H]1CN2CCC1C[C@@H]2Cn1cc(CCO)nn1 (some centres unmarked) [CBK289089] | 109.41
8 | O=C(O)c1ccccc1Nc1c2ccccc2nc2ccccc12 [CBK263921] | 76.2117
9 | Cn1cccc1C(=O)NCc1ccc(OC2CCNCC2)cc1 [CBK036360T] | 60.4408
10 | c1ccc(-c2nc(C3CCCC3)n3ccccc23)cc1 [CBK149260] | 91.6296
11 | CCOC(=O)N1CCN(C(C(=O)O)c2c[nH]c3cc(OCc4ccccc4)ccc23)CC1 (centres unmarked) [CBK286689] | 97.9849
12 | COc1cccc2cc(C(=O)Nc3ccc4[nH]ccc4c3)oc12 [CBK149819] | 85.6805
13 | CCCN1CCN(c2ncnc3sc(C4COc5ccccc5O4)cc23)CC1 (centres unmarked) [CBK269396] | 64.4247
14 | Cn1cnc(S(=O)(=O)N(c2ccc(C(C)(C)C)cc2)C2CCNCC2)c1 [CBK165046T] | 82.8874
15 | CCCC/C=C/c1cnc(N)c(N[C@@H](C)c2ccccc2)n1 [CBK063722] | 81.186
16 | OC(Cn1c(Cc2ccccc2)nc2ccccc21)Cn1c2ccccc2c2ccccc21 (centres unmarked) [CBK262570] | 110.626
17 | Cc1nn(C)c(C)c1C(C)NS(=O)(=O)Cc1cccc(F)c1 (centres unmarked) [CBK281396] | 90.0409
18 | COc1ccc2c(c1)nc(SCC(O)c1ccccc1)n2C (centres unmarked) [CBK262508] | 92.0197
19 | O=C(O)CSc1nnc(-c2ccc(S(=O)(=O)N3CCCCCC3)cc2)o1 [CBK300508] | 111.258
20 | OCCN1CCN(c2nc(C3CCOC3)cn3ccnc23)CC1 (centres unmarked) [CBK037931] | 112.592
21 | Nc1nc(CCC(=O)N2CCCC(c3cc(O)ncn3)C2)cs1 (centres unmarked) [CBK306976] | 65.4457
22 | O=C(CCn1c(C(F)F)cc2cccnc21)NCc1ccncc1 [CBK285027] | 84.8959
23 | CCC(C)c1ccc(NC(C)C(=O)Nc2ccc3[nH]c(=O)[nH]c3c2)cc1 (centres unmarked) [CBK296694] | 98.6156
24 | CS(=O)(=O)N(Cc1ccccc1F)c1ccccc1C(=O)O [CBK287239] | 88.5567
25 | CC(=O)Nc1cccc(-c2cnc(N)c(N3CCN(CCN(C)C)CC3)n2)c1 [CBK063472] | 110.385
26 | COc1cccc(CN(C)C2CCN(C)CC2)c1OC [CBK261532] | 87.7216
27 | C=Cn1ncc(CN(C)Cc2nc3ccccc3[nH]2)c1C [CBK283170] | 105.624

Row | Compound | % of control remaining
28 | CCOc1ccccc1OCCCOc1ccc(C(=O)O)cc1 [CBK295144] | 87.6339
29 | Cc1ccccc1Nc1nc(N)nc(CN2CCCC2)n1 [CBK306152] | 19.6414
30 | Cc1cc(C2CCCN2C(=O)c2cnn3c(C)cc(C)nc23)on1 (centres unmarked) [CBK305634] | 51.9697
31 | CN(C)c1nc(NCc2ccccc2)nc(SCC(=O)Nc2ccccc2Cl)n1 [CBK267190] | 115.411
32 | O=C(NCc1ccco1)/C(=C\c1ccccc1)NC(=O)c1ccc(Br)cc1 [CBK263701] | 103.829
33 | CCC(C(=O)Nc1ccc(OC(C)=O)cc1C(=O)O)c1ccccc1 (centres unmarked) [CBK269685] | 69.427
34 | COc1ccc(-c2cccc(N3CCN(CCN4CCCC4)CC3)n2)cc1OC [CBK037680] | 79.2176
35 | COc1cc(-c2ccc(N)c3ccccc23)cc(OC)c1OC [CBK084332] | 58.815
36 | CCOc1ccc(CN2CCN(CCCc3ccccc3)CC2)cc1 [CBK264153G] | 105.21
37 | CCOc1ccc(-c2cncc(N3CCN(C(=O)c4ccco4)CC3)n2)cc1 [CBK065860] | 64.5392
38 | CC(=O)NCc1cccc(-c2cncc(C(=O)Nc3ccc4c(c3)OCCO4)c2)c1 [CBK161009T] | 65.6978
39 | O=C(Nc1ccnn1Cc1cccs1)N1Cc2cnn(CCO)c2C1 [CBK307150] | 28.7299
40 | CC(=O)c1ccc(NC(=O)CC2SC(=N)NC2=O)cc1 (centres unmarked) [CBK265625] | 112.782
41 | O=C(NC1CCN(Cn2nnc3ccccc3c2=O)CC1)C1CC1 [CBK305584] | 23.3319
42 | N#Cc1c(-c2ccc(Cl)cc2)c[nH]c1N [CBK019323] | 89.8893
43 | Cc1cc(CNC(=O)[C@@H]2Cc3cn(C)c4cccc(c34)[C@H](CC(C)C)N2)no1 [CBK289420] | 102.491
44 | Nc1ncc(-c2cccc(C(=O)O)c2)nc1-c1ccc(O)cc1 [CBK200420] | 101.998
45 | COC(=O)C1=C(C)OC(n2cccc2)=C(C#N)C1c1cc(OC)c(O)c(OC)c1 (centres unmarked) [CBK293994] | 111.828
46 | COc1ccc2c(c1)C1(CC(=O)N(Cc3ccccc3)C1=O)C(=O)N2CCCN1C(=O)c2ccccc2C1=O (centres unmarked) [CBK075501] | 129.903
47 | CCCn1c(=S)[nH]c2cc(C(=O)NCCc3ccc(Cl)cc3)ccc2c1=O [CBK294445] | 101.799
48 | CC(C(=O)Nc1ccc2oc(-c3ccccc3)nc2c1)(c1ccccc1)c1ccccc1 [CBK263928] | 102.104
49 | N[C@H]1C[C@H](c2nnc(Cn3ncc(N4CCCC4)cc3=O)n2C2CC2)C1 [CBK307039] | 38.8906
50 | CSC(=S)n1c(C)nc2ccccc21 [CBK018539] | 24.9627
51 | O=[N+]([O-])c1cc(F)ccc1Oc1cccc2c1CCCC2 [CBK002559] | 77.9113
52 | CN1CCN(c2nc(NCCNc3ccc([N+](=O)[O-])cc3)c3ccccc3n2)CC1 [CBK266949] | 57.1989
53 | CCNC(=O)Nc1nc2cccnc2cc1-c1ccccc1 [CBK081239] | 76.677
54 | CC(=O)c1nnn(-c2cc(Cl)ccc2Cl)c1C [CBK085973] | 46.2087

Row | Compound | % of control remaining
55 | O=C(O)CCC(=O)Nc1ccc(NC(=O)c2ccccc2)c(Cl)c1 [CBK263478] | 74.6525
56 | COC(=O)c1ccc(CN2CCC(Oc3nccnc3OCc3ccc(Cl)c(Cl)c3)CC2)o1 [CBK153782] | 96.0044
57 | CCOC(=O)N1CCN(c2cccc3[nH]c(C(=O)O)cc23)CC1 [CBK083477] | 88.0398
58 | CO/N=C(/C(=O)O)c1cn2cc(Br)ccc2n1 [CBK260925G] | 100.815
59 | CN(C(=O)Cn1cc(C(=O)NCC(C)(C)c2ccc(F)cc2)ccc1=O)c1ccccc1 [CBK285662] | 98.8029
60 | O=c1c(Cc2ccccc2)c(O)c2cccc3c2n1CCC3 [CBK291166] | 106.194
61 | CCCCN=C(NCCCn1cccn1)N1CCCN(C(C)=O)CC1 [CBK304273I] | 38.1442
62 | Cc1cc(C)nc(NS(=O)(=O)c2ccc(Nc3ccc4nonc4c3[N+](=O)[O-])cc2)n1 [CBK261444] | 30.3348
63 | COc1cc(Nc2nc(-c3ccco3)cn3ccnc23)cc(OC)c1OC [CBK037413] | 153.958
64 | CCC(=O)NCCCn1c(-c2cccnc2C)cc2cccnc21 [CBK282646] | 105.747
65 | CSc1nnc(CCCNC(=O)c2cccc(C#N)c2)n1C1CCCC1 [CBK305459] | 64.5208
66 | COc1ccc(NS(=O)(=O)c2ccc(NC(=O)c3nc4nc(C)cc(C(F)F)n4n3)cc2)cc1 [CBK266123] | 107.281
67 | CCC(CO)Nc1cncc(-c2cccc(F)c2)n1 (centres unmarked) [CBK065752] | 78.9153
68 | O=C(O)C1CCN(c2c(-c3ccccc3)c3cc(Cl)ccc3[nH]c2=O)CC1 [CBK287198] | 107.406
69 | N#Cc1ccc(-n2cc(-c3ccc(F)cc3F)nn2)cc1 [CBK112990] | 59.7829
70 | CS(=O)(=O)N1C[C@@H]2CCCCN(Cc3cccc(F)c3)[C@@H]2C1 [CBK285514] | 98.5515
71 | O=C(NC[C@H]1CCCN(C(=O)c2cccs2)C1)c1ccco1 [CBK284261] | 108.004
72 | NS(=O)(=O)c1ccc(CNC(=O)c2cc(-c3cccnc3)nc3ccc(Br)cc23)cc1 [CBK267740] | 111.511
73 | CCOc1ccccc1-c1ccccc1NC(=O)c1ccc(-n2nc(C)cc2C)cc1 [CBK285845] | 6.407
74 | CCOC(=O)C1CCN(Cc2nc(-c3ccc(OC)c(OC)c3)no2)CC1 [CBK268852] | 98.496
75 | Cc1ccc(CN(Cc2c[nH]cn2)C2CC(C)(C)NC(C)(C)C2)o1 [CBK283175] | 102.977
76 | Cc1cccc(-c2noc(CNC(=O)CSc3ccccc3)n2)c1 [CBK270209] | 97.6957
77 | COc1cc(Nc2cc(C)nc3ncnn23)ccc1N1CCCC1=O [CBK297725] | 122.425
78 | O=C(O)COCC(=O)N1CCN(C(c2ccccc2)c2ccccc2)CC1 [CBK232579] | 104.253
79 | CCNC(=O)NC[C@H]1C[C@@H]2CCN1C[C@@H]2c1cc(-c2ccccc2)nc(C)n1 [CBK289125] | 96.7276
80 | COc1ccc(CNC(=O)N(Cc2cccnc2)Cc2ccc3c(c2)OCO3)cc1OC [CBK159456] | 109.499
